# Measurements: PubChem BioAssay AID1240 (Sanford-Burnham Center for Chemical Genomics, 2008)
# Out of some 50,000 compounds screened, about 800 (1.6%) showed an effect of 50% or more. The list shows a part of the results.
# Target: Bcl-2-like protein 10 (Homo sapiens) (UniProt Q9HD36)
# Test: TR3 peptide-Bcl-B binding displacers, biochemical primary FP assay, phenotype converters (AID 1240);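 note: 0% = Bcl-B with tracer peptide and DMSO and 100% = tracer peptide lacking Bcl-B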
# Settings: GST-Bcl-B / FITC-TR3 peptide fluorescence polarization; stronger effect = higher value; compound at 3.75 mg/L
# Sequence of UniProt Q9HD36 (Q9HD36 whole entry, looked up): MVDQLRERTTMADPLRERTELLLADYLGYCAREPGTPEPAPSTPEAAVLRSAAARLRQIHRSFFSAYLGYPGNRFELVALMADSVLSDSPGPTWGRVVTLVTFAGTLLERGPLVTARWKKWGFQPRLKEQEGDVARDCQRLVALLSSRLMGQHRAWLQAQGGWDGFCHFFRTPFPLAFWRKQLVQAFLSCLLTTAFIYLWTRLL
row,SMILES,displacement
1,CC(=O)c1cc(NS(=O)(=O)c2ccc(C)cc2)ccc1O,-14.3%
2,CCOC(=O)C1=C(C)N=c2s/c(=C\c3ccccc3F)c(=O)n2C1c1ccc(OC)c(OC)c1 (stereo unspecified),6.3%
3,Cc1n[nH]c(C)c1CCCCCOc1ccc([N+](=O)[O-])cc1,9%
4,O=Cc1ccc(OCc2ccccc2F)cc1,-2.7%
5,CCOC(=O)c1c(C)oc2ccc(OC(=O)c3cc4ccccc4o3)cc12,9.8%
6,CCc1cccc(C)c1NC(=O)CCCC(=O)O,9%
7,COCCCNC(=O)C(=O)NC(C)C,11.3%
8,O=C1NC(=Nc2ccc(F)cc2)S/C1=C/c1ccc(Br)cc1,8%
9,C/C(CCc1ccc2c(c1)OCO2)=N\N=C1/NC(=O)CC(C(=O)N2CCN(c3ccc([N+](=O)[O-])cc3)CC2)S1 (stereo unspecified),-13.7%
10,CCC(C)NC(=O)Cn1nc(C(F)(F)F)c(Cl)c1C (stereo unspecified),8.5%
11,O=C(CCc1ccccc1)Nc1ccc(Br)cn1,8.5%
12,CC1=C(C(=O)OCc2ccccc2)C(c2ccc(F)c(F)c2)C2=C(CC(C)(C)CC2=O)N1 (stereo unspecified),-3.6%
13,O=C(O)C(Cc1ccccc1)N1C(=O)/C(=C/c2cccs2)SC1=S (stereo unspecified),5.9%
14,O=C(C[n+]1cccc(NC(=O)c2ccccc2)c1)c1ccc2c(c1)Cc1ccccc1-2,-7.8%
15,O=C(Cn1c(NCCCO)nc2ccccc21)c1ccc(Br)s1,8.7%
16,CC(=O)Nc1ccccc1NC(=O)COc1ccccc1,-4.2%

row,SMILES,displacement
1,Cc1nc(SCc2ccccc2)c(C#N)c(C)c1C,2%
2,COc1cccc(C(=O)NNC(=O)CCC(=O)O)c1,4.8%
3,O=[N+]([O-])c1ccc(OC/C=C/c2cccc([N+](=O)[O-])c2)cc1,-0.9%
4,COc1ccc(NC(=O)CSCCc2ccccn2)c([N+](=O)[O-])c1,10.5%
5,O=C(COc1ccccc1)Nc1ccc(Cc2ccncc2)cc1,9.6%
6,O=C1N=C2SC=CN2C(=O)C1Cc1ccccc1 (stereo unspecified),15%
7,Cc1cc(Cl)ccc1OCC(=O)Nc1ccc(C(N)=O)cc1,1.1%
8,Cc1ccc(/C=N/NS(=O)(=O)c2ccc(C)cc2)cc1,8%
9,COc1ccc(CN2CCN(C3CCC(c4ccccc4)CC3)CC2)c(OC)c1OC (stereo unspecified),-12%
10,Cc1ccc(S(=O)(=O)/N=C/c2ccc(C(F)(F)F)cc2)cc1,-6.5%
11,O=C(c1cc2cc([N+](=O)[O-])ccc2oc1=O)N1CCN(C/C=C/c2ccccc2)CC1,12.2%
12,COc1cccc(/C=N/Nc2nnc(-c3ccccc3)c(-c3ccccc3)n2)c1O,5.8%
13,Cc1ccc(-c2cc(C(F)(F)F)n3ncc(C(=O)N(C)Cc4ccccc4)c3n2)cc1,13.5%
14,CCOC(=O)c1cc(CC)sc1NC(=O)c1cccs1,-4.7%
15,COc1ccc(C(=O)n2nnc3ccccc32)cc1,-1.2%
